Data: the supplement of paper PMC10338343
± gives the standard deviation. In all, about 5,500 sequences were measured (“pre-steady-state target cleavage rate”: median about 0.1, highest 2% from about 0.64 on). This is a selection; strong and weak results do not stand in their true shares.

system: MIWI (PIWIL1) piRISC loaded with piRNA #2 (30 nt); test: pre-steady-state target cleavage rate (min^-1); MIWI and MILI are mouse PIWI proteins and EfPiwi is from a freshwater sponge; tags in brackets are library labels; higher = faster piRNA-guided slicing of the target; conditions: guide: piRNA #2 5'p-UUAGGUAACCCAGUAGAUCCAGAGGAAUUC; auxiliary factor: 500 nM mouse GTSF1
Method: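 Cleave-'n-Seq: a library of target RNAs (target site embedded in constant flanks, ACAGCATTCCGCGTTAGTGATATCCG... 5' flank; DNA-blocked outside the site) at 0.1 nM was incubated with 1 nM active mouse MILI or MIWI piRISC (synthetic 5'-monophosphorylated piRNA guide) with or without 500 nM mouse GTSF1 at 33 °C for 1 min to 16 h. Uncleaved targets were sequenced and normalised to non-target controls, and the pooled three trials were fitted to a burst-and-steady-state model to give the pre-steady-state cleavage rate (min^-1; k3 is constrained to at most 1e-4). Sequence is the target site only; target names encode pairing extent (gX:gY) and contiguous / 1-mismatch / 2-mismatch / bulge geometry. Fits with R² ≤ 0 are excluded.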

Question: CUUUUCCUCUGGAUCUACUGGCAAACCUAA was tested. Which “pre-steady-state target cleavage rate” value did it give?
Answer: 0.00392 ± 0.0027

Question: Which “pre-steady-state target cleavage rate” value does the source give for CUUAUCCUCUGGAUCUACUCGGUUACCUUA here?
Answer: 0.0652 ± 0.02

Question: For CUUAAGGUCUGGAUCAUACUGGGUUACCUAA, which “pre-steady-state target cleavage rate” value is on record?
Answer: 0.00457 ± 0.0032

Question: Which “pre-steady-state target cleavage rate” value does the source give for CUUUUCGUCUGGAUCUUCUGGGUUACCUAA here?
Answer: 0.134 ± 0.023

Question: How did the “pre-steady-state target cleavage rate” value turn out when CUUAAGGAGUGGAUCUACUGGGAUACCUUA was run?
Answer: 0.00465 ± 0.0034

Question: With CUUAUCCUCUGGAUCUACUGGCAUACCUAA as the sequence, how does the “pre-steady-state target cleavage rate” value read?
Answer: 0.00689 ± 0.0037

Question: With GAAUUCCUCUGGAUCUACUGGGUUGACCUAA as the sequence, how does the “pre-steady-state target cleavage rate” value read?
Answer: 0.364 ± 0.038

Question: CUUAAGCUGUGGAUCUACUGGGAUACCUAA was tested. Which “pre-steady-state target cleavage rate” value did it give?
Answer: 0.0791 ± 0.029

Question: How did the “pre-steady-state target cleavage rate” value turn out when CUUAACCUCUGGAUCUACUGGGUUACCAAA was run?
Answer: 0.257 ± 0.038

Question: “CUUAAGCUCUGGAUCUACUGGGUUACCUAU [g2:g24:cont:t1U]” was tested. Which “pre-steady-state target cleavage rate” value did it give?
Answer: 0.0709 ± 0.014

Question: CUAUUCCUCUGGAUCGACUGGGUUACCUAA was tested. Which “pre-steady-state target cleavage rate” value did it give?
Answer: 0.239 ± 0.032

Question: How did the “pre-steady-state target cleavage rate” value turn out when CUUAAGGUCUGGAUCUACUGGGUAACGUAA was run?
Answer: 0.0836 ± 0.016

Question: CAAUUCCUCUGGAUCUACUGCGUUACGUAA was tested. Which “pre-steady-state target cleavage rate” value did it give?
Answer: 0.573 ± 0.096

Question: With CAAUUCCUCUGGAUCUACUGGGUGUACCUAA as the sequence, how does the “pre-steady-state target cleavage rate” value read?
Answer: 0.362 ± 0.05

Question: Which “pre-steady-state target cleavage rate” value does the source give for CAAUUCCUCUGGAUGAUCUGGGUUACCUAA here?
Answer: 0.0124 ± 0.0051

Question: With CUUAAGGAGAGGAUCCACUGGGUUACCUAA as the sequence, how does the “pre-steady-state target cleavage rate” value read?
Answer: 0.0131 ± 0.0026

Question: With CUUAAGGUGUCGAUCUACUGGGUUACCUAA as the sequence, how does the “pre-steady-state target cleavage rate” value read?
Answer: 0.00494 ± 0.0027

Question: CUAUUCCUCUGGAUGUACUGGGUUACCUUA was tested. Which “pre-steady-state target cleavage rate” value did it give?
Answer: 0.403 ± 0.043

Question: For GAAUUCCUCUGGAUCAACUGGGUUACCUAA, which “pre-steady-state target cleavage rate” value is on record?
Answer: 0.333 ± 0.051

Question: GAAUUCGUCUGGAUCUAGUGGGUUACCUAA was tested. Which “pre-steady-state target cleavage rate” value did it give?
Answer: 0.0625 ± 0.014

Question: Which “pre-steady-state target cleavage rate” value does the source give for CAAUACCUCUGGAUCUACUGGGAUACCUAA here?
Answer: 0.248 ± 0.031

Question: For CUUAAGGACUGGAUCUACAGGGUUACCAAA, which “pre-steady-state target cleavage rate” value is on record?
Answer: 0.0681 ± 0.018

Question: How did the “pre-steady-state target cleavage rate” value turn out when CUUAUCCUCGGAUCUACUGGGUUACCUAA was run?
Answer: 0.313 ± 0.06

Question: With CAAUUCGUCUGGAUCUACUGGGUUACGUAA as the sequence, how does the “pre-steady-state target cleavage rate” value read?
Answer: 0.482 ± 0.074

Question: How did the “pre-steady-state target cleavage rate” value turn out when CAAUUCCACUGGAUCUACUGGGUAACCUAA was run?
Answer: 0.293 ± 0.061

Question: CUUAUCCUCUGGAUCUACUGGGUUACACUAA was tested. Which “pre-steady-state target cleavage rate” value did it give?
Answer: 0.551 ± 0.047

Question: Which “pre-steady-state target cleavage rate” value does the source give for CUUAAGCUCCUGGAUCUACUGGGUUACCUAA here?
Answer: 0.181 ± 0.021

Question: Which “pre-steady-state target cleavage rate” value does the source give for CUUUUCCUCUGGAUGUACUGGGUUUCCUAA here?
Answer: 0.316 ± 0.068

Question: With CUUUUCCUCUGGUCUACUGGGUUACCUAA as the sequence, how does the “pre-steady-state target cleavage rate” value read?
Answer: 0.205 ± 0.057

Question: Which “pre-steady-state target cleavage rate” value does the source give for CUUAAGGAGUGAAUCUACUGGGUUACCUAA here?
Answer: 0.0123 ± 0.0035

Question: For CUUAACCUCUGGAUCUACUCGGUUUCCUAA, which “pre-steady-state target cleavage rate” value is on record?
Answer: 0.023 ± 0.0077

Question: How did the “pre-steady-state target cleavage rate” value turn out when CUUUUCCUCUGGAUCUACGGGUUACCUAA was run?
Answer: 0.0476 ± 0.0059

Question: How did the “pre-steady-state target cleavage rate” value turn out when CAUUUCCUCUGGAUCUACUCGGUUACCUAA was run?
Answer: 0.111 ± 0.023

Question: For CUUUUCCUCUCGAUCUACUGGGAUACCUAA, which “pre-steady-state target cleavage rate” value is on record?
Answer: 0.435 ± 0.028

Question: CUUAAGGAGUGGAUCUACUCGGUUACGUAA was tested. Which “pre-steady-state target cleavage rate” value did it give?
Answer: 0.0153 ± 0.011

Question: How did the “pre-steady-state target cleavage rate” value turn out when CUUAAGCUCUGGAUCUACUGGGUUUACCUAA was run?
Answer: 0.116 ± 0.017

Question: With GUAUUCCUGUGGAUCUACUGGGUUACCUAA as the sequence, how does the “pre-steady-state target cleavage rate” value read?
Answer: 0.168 ± 0.045

Question: How did the “pre-steady-state target cleavage rate” value turn out when CUUAAGCUCUGGAUCUACUGGCUUACCUUA was run?
Answer: 0.0348 ± 0.013

Question: How did the “pre-steady-state target cleavage rate” value turn out when CUUAAGGACGUGGAUCUACUGGGUUACCUAA was run?
Answer: 0.093 ± 0.042

Question: With CUUAUCCUCUCGAUCUACAGGGUUACCUAA as the sequence, how does the “pre-steady-state target cleavage rate” value read?
Answer: 0.354 ± 0.024

Question: CUUAACCACUGGAUCUACUGGGUUACCUUA was tested. Which “pre-steady-state target cleavage rate” value did it give?
Answer: 0.32 ± 0.043

Question: With CAAUACCUCUGGAUCUACUCGGUUACCUAA as the sequence, how does the “pre-steady-state target cleavage rate” value read?
Answer: 0.0684 ± 0.016

Question: CAAUUCCACUGGAUCUACAGGGUUACCUAA was tested. Which “pre-steady-state target cleavage rate” value did it give?
Answer: 0.208 ± 0.031

Question: CUUAAGCUCUGGAUCAACUGGCUUACCUAA was tested. Which “pre-steady-state target cleavage rate” value did it give?
Answer: 0.0298 ± 0.0089

Question: How did the “pre-steady-state target cleavage rate” value turn out when CUUUUCCAGUGGAUCUACUGGGUUACCUAA was run?
Answer: 0.521 ± 0.047

Question: CUUAAGGACUGCAUCUACUGGGUUACGUAA was tested. Which “pre-steady-state target cleavage rate” value did it give?
Answer: 0.0548 ± 0.032

Question: With GAAUUCCUGUGGAUCUACUGGGUUUCCUAA as the sequence, how does the “pre-steady-state target cleavage rate” value read?
Answer: 0.217 ± 0.04

Question: How did the “pre-steady-state target cleavage rate” value turn out when CUUAAGCUCAGGAUCUACAGGGUUACCUAA was run?
Answer: 0.081 ± 0.014

Question: With GAAUUCCUCAGGAUGUACUGGGUUACCUAA as the sequence, how does the “pre-steady-state target cleavage rate” value read?
Answer: 0.435 ± 0.052

Question: CUUAACCUCUGGAACUACUGGGUUACGUAA was tested. Which “pre-steady-state target cleavage rate” value did it give?
Answer: 0.373 ± 0.024

Question: GAAUUCCUCUGGAUCUACUGGUUACCUAA was tested. Which “pre-steady-state target cleavage rate” value did it give?
Answer: 0.119 ± 0.031

Question: For CUUUUCCUCUGGUUCUUCUGGGUUACCUAA, which “pre-steady-state target cleavage rate” value is on record?
Answer: 0.284 ± 0.03

Question: With CUUAAGGAGUGGAUCUACUGAGUUACCUAA as the sequence, how does the “pre-steady-state target cleavage rate” value read?
Answer: 0.188 ± 0.049

Question: CUUUUCCUCUGGAUCUACUGGGUUACGAAA was tested. Which “pre-steady-state target cleavage rate” value did it give?
Answer: 0.264 ± 0.048

Question: With CUUAAGCACUGGAUCUACUGGGAUACCUAA as the sequence, how does the “pre-steady-state target cleavage rate” value read?
Answer: 0.167 ± 0.018

Question: Which “pre-steady-state target cleavage rate” value does the source give for GAAUUCCUCUGAGAUCUACUGGGUUACCUAA here?
Answer: 0.381 ± 0.046

Question: CUAUUCCUCUGGAUCUACUCGGUUACCUAA was tested. Which “pre-steady-state target cleavage rate” value did it give?
Answer: 0.104 ± 0.019

Question: How did the “pre-steady-state target cleavage rate” value turn out when CUUAAGCUCUCGAUCUAGUGGGUUACCUAA was run?
Answer: 0.165 ± 0.014

Question: With CUUAAGGUCUGGAUCUUCUGGCUUACCUAA as the sequence, how does the “pre-steady-state target cleavage rate” value read?
Answer: 0.015 ± 0.012

Question: With CAAUUCCUCUCGAUCUACUGGGUUUCCUAA as the sequence, how does the “pre-steady-state target cleavage rate” value read?
Answer: 0.631 ± 0.054

Question: With CUUAUCCUAUGGAUCUACUGGGUUACCUAA as the sequence, how does the “pre-steady-state target cleavage rate” value read?
Answer: 0.524 ± 0.05

Question: For GAAUUCCUCAGGAUCUACUGCGUUACCUAA, which “pre-steady-state target cleavage rate” value is on record?
Answer: 0.518 ± 0.048

Question: For CUAUUCGUCUGGAUCUACUGGCUUACCUAA, which “pre-steady-state target cleavage rate” value is on record?
Answer: 0.0985 ± 0.029

Question: For CUUUUCCUCUGGAUCUACAGGGUUAGCUAA, which “pre-steady-state target cleavage rate” value is on record?
Answer: 0.113 ± 0.02

Question: Which “pre-steady-state target cleavage rate” value does the source give for CUUUUCCUCUGGAUUCUACUGGGUUACCUAA here?
Answer: 0.283 ± 0.043

Question: How did the “pre-steady-state target cleavage rate” value turn out when CUUAUCCUCUGGAUGUACUGGGUUACCUAA was run?
Answer: 0.459 ± 0.051

Question: Which “pre-steady-state target cleavage rate” value does the source give for CAAUUCCUCUGGAUCUACUGGGAUACCAAA here?
Answer: 0.226 ± 0.066

Question: Which “pre-steady-state target cleavage rate” value does the source give for CUUAACCUUUGGAUCUACUGGGUUACCUAA here?
Answer: 0.301 ± 0.025

Question: Which “pre-steady-state target cleavage rate” value does the source give for CUUAAGCACUGGUUCUACUGGGUUACCUAA here?
Answer: 0.238 ± 0.021

Question: Which “pre-steady-state target cleavage rate” value does the source give for CAAUUCCUCUGGAACUACUGGGUUAGCUAA here?
Answer: 0.293 ± 0.05

Question: How did the “pre-steady-state target cleavage rate” value turn out when CUAUUCCUCUGGAUCUACAGCGUUACCUAA was run?
Answer: 0.138 ± 0.024

Question: CUUAAGGUCAUGGAUCUACUGGGUUACCUAA was tested. Which “pre-steady-state target cleavage rate” value did it give?
Answer: 0.237 ± 0.031
